The assay relates to CAF1 mice, leiomyosarcoma No.2 ip, survival T/C%. As to the kind of experiment: NCI In Vivo Anticancer Drug Screen. Data for tumor model Leiomyosarcoma (No. 2) (intraperitoneal) in CAF1 mice. The following applies: endpoint: mean survival time, schedule: Q01DX010 (ip), vehicle: saline, higher = longer survival. As for the experimental part:
The antitumor activity of compounds was measured in mice bearing transplantable tumors. Survival or tumor size were measured and the results are expressed as the measurement made in the treated group (T) divided by the measurement made in the vehicle treated control group (C). The tumor model used in this assay is Leiomyosarcoma (No. 2) (intraperitoneal) in CAF1 mice

Toxic doses and inconclusive results are not listed. Not every entry of the source has a single result; some have several. The other results are left out here. The source may hold further records. The records of an entry repeat one measurement (runs, samples, wells, individuals or studies).

In the case of `N=[N+]=CC(=O)OCC(N)C(=O)O` (stereo not drawn), under “dose: 12.5 mg/kg/injection”, the T/C is 100 % of control and 191 % of control.

As for `CCCSc1ncnc2nc[nH]c12`, the T/C (dose: 62.5 mg/kg/injection) was 106 % of control and 182 % of control. Regarding `OCC1OC(n2cnc3c(=S)nc[nH]c32)C(O)C1O` (stereo not drawn), the T/C (dose: 40.0 mg/kg/injection) is 111 % of control and 150 % of control. Regarding `Nc1nc(=S)c2[nH]cnc2[nH]1`, the T/C (dose: 2.5 mg/kg/injection) was 92 % of control and 156 % of control. Take `CC(=O)N(C)C`: the T/C (dose: 125.0 mg/kg/injection) was 103 % of control and 195 % of control. Take `O=c1[nH]c(=O)n(C2CC(O)C(CO)O2)cc1F` (stereo not drawn): the T/C (dose: 20.0 mg/kg/injection) is 122 % of control and 169 % of control. With `N#[N+]c1cnc([O-])[nH]c1=O`, the T/C runs as follows: (dose: 1.25 mg/kg/injection) 120 % of control and 177 % of control; (dose: 5.0 mg/kg/injection) 113 % of control and 195 % of control.

Values taken from PubChem BioAssay AID238 (DTP/NCI, 2004).
